Read counts are not given, so values of variants with three or more changes are uncertain.
B1: OR4K15 (parent)
chain: GUUAACGGUCAUAGGCCAUGGAAACUAGGAGCACCAUUUCGCUGCCAGUGAAGAAAUGAACAAAGAAAAUCUGGGCCAGGCAGGCAUCAAAAGAAAUAGUCUUGCGCUCAACCAGAAAGUCUGUAAUCAUUUUAAGGGUA

Variants of: B1
Assay: self-cleavage, relative activity (ratio to wild type); higher = more cleavage; in vitro, sequencing; the parent is a self-cleaving ribozyme

Variant	self-cleavage
U39C U43C A55G	0.99
U38G A60G A117G	1.71
U37C U122C U131C	0.98
U38A U49C A89G A92G	1.24
U37C U72A A118G	0.1
U38C A111G U122C G137A	0.01
U39C U70C A95G U132C	0.35
U39C G44A A63G	1.45
U38C U57C U132C A135G	1.03
U38C U57C U87A	0.44
U38C U43A A67G U120A	2.35
U39C A63G U122C	1.43
U39C A52U A63G C81U	0.42
U38C A92G A114G	0.62
U38C A52G U70G A78C	0.37
U39A U43C A82U U133G	0.12
U38A A82U A96G A111G	0.01
U38C U72C A90G A91G	0.11
U39A A89G A96G	0.88
U39C A47U C77U U133A	1.42
U39C A52G A92G	0.93

Variant	self-cleavage
U39A A69U A110U	1.38
U38A A52G C76U A90G	0.38
U39C A60G A94G	2.31
U39A A47U A59G G99A A110G A118G	0.01
U39C A55G G75U	0.24
U39C C105U U124C	0.11
U38C A56G A96U	1.68
U38C A52G U87C A94G A125G	0.6
U39C A96G A117C	0.65
U39C G53U U103C	0.31
U37C U43A A54G U122A	1.92
U37G A62G A68G A91G	1.12
U38C A52G A64G A82U	0.25
U38C C42U A59G	1.68
U39A A63G A90U	2.38
U37G U87C A90G	0.46
U39C A51G A54G A90G A92G U130A	0.44
U39C A56G A135U	1.09
U39A A64G U100C U102A U122A	2.41
U39C U108A U124C A129G	0
U39A A82G A89G G137U	0.52

Variant	self-cleavage
U37G A91G U100C U102A U103C	0.4
U39A A63G A94G	2.47
U37C U108C A110G U132A	0.01
U38C A68G A110U A125G	0.42
U39C U87A U127C	1.57
U38A A67G U100C	2.29
U38C A51G A54G C101A A114U	0.02
U38C G44A A47G A62C A95G U102C	1.65
U38C A51U A54G U87A A90G A92G	1.44
U38G A47G C76U A89G	0.07
U37G A47U A114G	0.34
U38A A66G A68U U70C U102C	1.05
U39C U43A A47G A96G	1.55
U38C A67G A95G U100A	0.71
U38C A51U A55G U100A C105U	0.05
U38A U43G U49C A54G	1.67
U38C U72A A86G A116G	0.06
U39A A66G A98G U100C	1.94
U38C A67G U72C A78G A82G U108C	0.02
U38C A78U A110G	0.1
U38C A47G A98U A129G	1.31

Variant	self-cleavage
U38C U43A U103C	1.15
U38A A51G U97C U120A	0.09
U37C U57C A63G A90G	1.07
U38C A51G U57C A86G A96G	1.06
U38A A52G A60G A82U A94G A96G A117G	0.21
U39C A47C A59U A66U U122C	0.85
U38G A56G U108C	0.02
U37C U43C U70C A92G A118G A126C	0
U37C U38C A55G A86G	1.95
U38C A52G A134G	0.96
U38C A110U A117G	0.92
U38C U70G A89C G104A	0.06
U39A A86G U102C A116C	0.81
U39C A51G A82G A126G U139A	0.33
U38C A67G A95G	1.06
U39A C40U A54U A114U	0.01
U39A A89G G104A	0.07
U38C A92G A135G	2.18
U39A U49C C112G	0.02
U39C A92G A110G	0.21
